Experimental data published in the supplement of paper PMC12217912.
The other results are listed elsewhere or left out. Sequences were assembled here from the parent chain. Inactive controls read about 0.05.

B1: TEV protease; numbered along this chain (parent)
chain: MGESLFKGPRDYNPISSSICHLTNESDGHTTSLYGIGFGPFIITNKHLFRRNNGTLVVQSLHGVFKVKDTTTLQQHLVDGRDMIIIRMPKDFPPFPQKLKFREPQREERICLVTTNFQTKSMSSMVSDTSCTFPSGDGIFWKHWIQTKDGQCGSPLVSTRDGFIVGIHSASNFTNTNNYFTSVPKNFMELLTNQEAQQWVSGWRLNADSVLWGGHKVFMVKPEEPFQPVKEATQL

Variants of: B1
Assay: raw area under fraction-flipped curve 0-4 h after induction (AUC4h, not background-subtracted), DNA-recorder readout of cleavage of the substrate (dimensionless); higher = more cleavage of the substrate by the protease variant
Settings: temperature: 34 °C; time window: 0-4 h after rhamnose induction
Procedure: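 In vivo DNA recorder in E. coli TOP10(DE3) ΔrhaA at 34 °C. Each TEVp single-site mutant (parent TEVp 0) is paired with a single-site variant of the 7-mer TEVs (canonical ENLYFQ|S). The substrate sits between flexible linkers in a Bxb1-sfGFP-TEVs-SsrA fusion, so cleavage stabilises Bxb1 and speeds flipping of a recombination array, read by NGS. The value is the raw area under the fraction-flipped curve over 0-4 h after rhamnose induction (AUC4h), with ≥20 reads per time point. It is not background-subtracted; inactive controls average about 0.047.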
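Note: Bxb1 expression induced with 0.2% (w/v) L-rhamnose at OD600 near 0.5, cultures sampled hourly, flipped fraction per protease–substrate barcode pair counted by paired-end Illumina sequencing.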

| Variant | area with substrate ENLYFAS | area with substrate ENLYFCS | area with substrate ENLYFES | area with substrate ENLYFFS | area with substrate ENLYFGS | area with substrate ENLYFIS | area with substrate ENLYFMS | area with substrate ENLYFNS | area with substrate ENLYFPS | area with substrate ENLYFRS | area with substrate ENLYFTS | area with substrate ENLYFYS | area with substrate ENLYFSS | area with substrate ENLYFVS | area with substrate ENLYFDS | area with substrate ENLYFHS | area with substrate ENLYFKS | area with substrate ENLYFLS | area with substrate ENLYFWS |
| --- | --- | --- | --- | --- | --- | --- | --- | --- | --- | --- | --- | --- | --- | --- | --- | --- | --- | --- | --- |
| MGESLFKGPRDYNPISSSICHLTNESDGHTTSLYGIGFGPFIITNKHLFRRNNGTLVVQSLHGVFKVKDTTTLQQHLVDGRDMIIIRMPKDFPPFKQKLKFREPQREERICLVTTNFQTKSMSSMVSDTSCTFPSGDGIFWKHWIQTKDGQCGSPLVSTRDGFIVGIHSASNFTNTNNYFTSVPKNFMELLTNQEAQQWVSGWRLNADSVLWGGHKVFMVKPEEPFQPVKEATQL [P96K] | 0.0715 | 0.0662 | 0.0918 | 0.0685 | 0.069 | 0.0542 | 0.0696 | 0.0505 | 0.0493 | 0.0346 | 0.0445 | 0.0549 | – | – | – | – | – | – | – |
| MGESLFKGPRDYNPISSSICHLTNESDGHTTSLYGIGFGPFIITNKHLFRRNNGTLVVQSLHGVFKVKDTTTLQQHLVDGRDMIIIRMPKDFPPFLQKLKFREPQREERICLVTTNFQTKSMSSMVSDTSCTFPSGDGIFWKHWIQTKDGQCGSPLVSTRDGFIVGIHSASNFTNTNNYFTSVPKNFMELLTNQEAQQWVSGWRLNADSVLWGGHKVFMVKPEEPFQPVKEATQL [P96L] | 0.0602 | 0.0572 | – | 0.0642 | 0.0621 | 0.0581 | 0.0665 | – | 0.0633 | 0.0685 | – | 0.0556 | 0.0623 | 0.0457 | – | – | – | – | – |
| MGESLFKGPRDYNPISSSICHLTNESDGHTTSLYGIGFGPFIITNKHLFRRNNGTLVVQSLHGVFKVKDTTTLQQHLVDGRDMIIIRMPKDFPPFVQKLKFREPQREERICLVTTNFQTKSMSSMVSDTSCTFPSGDGIFWKHWIQTKDGQCGSPLVSTRDGFIVGIHSASNFTNTNNYFTSVPKNFMELLTNQEAQQWVSGWRLNADSVLWGGHKVFMVKPEEPFQPVKEATQL [P96V] | 0.057 | 0.0643 | 0.0625 | 0.0641 | 0.0665 | 0.0465 | 0.0634 | 0.0582 | 0.0545 | 0.0554 | 0.0438 | 0.0723 | – | 0.0622 | 0.0717 | 0.0643 | 0.0709 | 0.0596 | 0.0477 |
| MGESLFKGPRDYNPISSSICHLTNESDGHTTSLYGIGFGPFIITNKHLFRRNNGTLVVQSLHGVFKVKDTTTLQQHLVDGRDMIIIRMPKDFPPFYQKLKFREPQREERICLVTTNFQTKSMSSMVSDTSCTFPSGDGIFWKHWIQTKDGQCGSPLVSTRDGFIVGIHSASNFTNTNNYFTSVPKNFMELLTNQEAQQWVSGWRLNADSVLWGGHKVFMVKPEEPFQPVKEATQL [P96Y] | 0.054 | 0.0546 | – | 0.021 | – | – | 0.0626 | 0.0644 | 0.0429 | 0.0537 | 0.0616 | – | 0.0794 | – | – | – | – | – | 0.0683 |
| MGESLFKGPRDYNPISSSICHLTNESDGHTTSLYGIGFGPFIITNKHLFRRNNGTLVVQSLHGVFKVKDTTTLQQHLVDGRDMIIIRMPKDFPPFPQKLKFREFQREERICLVTTNFQTKSMSSMVSDTSCTFPSGDGIFWKHWIQTKDGQCGSPLVSTRDGFIVGIHSASNFTNTNNYFTSVPKNFMELLTNQEAQQWVSGWRLNADSVLWGGHKVFMVKPEEPFQPVKEATQL [P104F] | 0.0584 | – | – | 0.064 | – | – | 0.0583 | – | – | – | 0.0465 | 0.0599 | – | – | – | – | 0.0402 | – | 0.0683 |
| MGESLFKGPRDYNPISSSICHLTNESDGHTTSLYGIGFGPFIITNKHLFRRNNGTLVVQSLHGVFKVKDTTTLQQHLVDGRDMIIIRMPKDFPPFPQKLKFREIQREERICLVTTNFQTKSMSSMVSDTSCTFPSGDGIFWKHWIQTKDGQCGSPLVSTRDGFIVGIHSASNFTNTNNYFTSVPKNFMELLTNQEAQQWVSGWRLNADSVLWGGHKVFMVKPEEPFQPVKEATQL [P104I] | 0.0468 | 0.0566 | 0.0525 | 0.0575 | 0.056 | 0.0551 | 0.0515 | 0.0587 | 0.0547 | 0.0491 | 0.0485 | 0.0451 | 0.0472 | 0.0399 | 0.045 | 0.0633 | 0.0581 | – | 0.0625 |
| MGESLFKGPRDYNPISSSICHLTNESDGHTTSLYGIGFGPFIITNKHLFRRNNGTLVVQSLHGVFKVKDTTTLQQHLVDGRDMIIIRMPKDFPPFPQKLKFRELQREERICLVTTNFQTKSMSSMVSDTSCTFPSGDGIFWKHWIQTKDGQCGSPLVSTRDGFIVGIHSASNFTNTNNYFTSVPKNFMELLTNQEAQQWVSGWRLNADSVLWGGHKVFMVKPEEPFQPVKEATQL [P104L] | 0.0425 | 0.0547 | 0.0428 | 0.0415 | 0.0552 | 0.0451 | 0.0515 | 0.0533 | 0.0535 | 0.0272 | 0.0396 | 0.0584 | 0.0534 | 0.0608 | 0.0566 | 0.0561 | – | 0.0517 | 0.0512 |
| MGESLFKGPRDYNPISSSICHLTNESDGHTTSLYGIGFGPFIITNKHLFRRNNGTLVVQSLHGVFKVKDTTTLQQHLVDGRDMIIIRMPKDFPPFPQKLKFREMQREERICLVTTNFQTKSMSSMVSDTSCTFPSGDGIFWKHWIQTKDGQCGSPLVSTRDGFIVGIHSASNFTNTNNYFTSVPKNFMELLTNQEAQQWVSGWRLNADSVLWGGHKVFMVKPEEPFQPVKEATQL [P104M] | 0.048 | 0.0604 | 0.0636 | – | – | 0.0468 | 0.0489 | 0.0565 | 0.0499 | 0.05 | 0.0503 | 0.0571 | 0.069 | – | 0.0473 | – | 0.065 | 0.0426 | 0.054 |
| MGESLFKGPRDYNPISSSICHLTNESDGHTTSLYGIGFGPFIITNKHLFRRNNGTLVVQSLHGVFKVKDTTTLQQHLVDGRDMIIIRMPKDFPPFPQKLKFREWQREERICLVTTNFQTKSMSSMVSDTSCTFPSGDGIFWKHWIQTKDGQCGSPLVSTRDGFIVGIHSASNFTNTNNYFTSVPKNFMELLTNQEAQQWVSGWRLNADSVLWGGHKVFMVKPEEPFQPVKEATQL [P104W] | 0.0515 | 0.0503 | 0.0423 | 0.0577 | 0.0431 | 0.0485 | 0.0475 | 0.057 | 0.0429 | 0.0668 | – | 0.0552 | 0.0506 | 0.0286 | 0.0575 | 0.0399 | 0.0589 | 0.0366 | – |
